Screen size: about 43,000 compounds; about 200 (0.47%) were called active. Inconclusive results (about 12%) are left out. The call rests on the fitted dose curve; in most records, active means well fitted cell-killing curve with a large enough effect; inconclusive means small, poorly fitted or top-dose-only effect, or effect the other way; inactive means flat fitted curve, though single readings scatter. This is one part of the list.
Assay: Cell viability qHTS assay in S16 Pmp22-F2sN cells; further: nearly all actives have a fitted effect of over 65% in size
Conditions: S16 Pmp22-F2sN Schwann cells (luciferase reporters placed in the Pmp22 gene) viability, CellTiter-Glo, 24 h; series mostly up to 57.5 µM; activity change, negative = cytotoxicity: at the top concentration
Summary of the method: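 CellTiter-Glo counter-screen, qHTS, 1536-well. Cells: S16(c9) Pmp22-F2sN, 500-1,000/well in DMEM + 10% FBS. Cpd 23 nL pin transfer, 24 h, 37C/5% CO2. Read: luminescence, CCD imager.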
On the % scale 0 is the no-effect control and ±100 the full control effect; potency means the concentration at half of the fitted maximal effect.

| Compound | activity change, negative = cytotoxicity | Potency |
| --- | --- | --- |
| Cc1ccc(N(C)C(=O)CCS(=O)(=O)c2cc3c(cc2Cl)NC(=O)CO3)cc1 | inactive: -3.38% | – |
| O=C(NCc1cccs1)c1ccc(CSc2nc3ccncc3n2Cc2ccccc2)cc1 | inactive: -8.54% | – |
| CC1CCC(NC(=O)c2ccc(CS(=O)(=O)c3cccc(C(F)(F)F)c3)o2)CC1 (stereo unspecified) | inactive: 0.662% | – |
| CCOc1ccc(S(=O)(=O)NCCc2csc3nc(-c4ccc(F)cc4)nn23)cc1 | inactive: -18.9% | – |
| Cc1ccc(C)c(Cn2c(=O)n(Cc3ccccc3)c(=O)c3c2c2cc(C)ccc2n3C)c1 | inactive: 23.4% | – |
| COc1cc(NC(=O)CNS(=O)(=O)c2cccs2)cc(OC)c1OC | inactive: 4.76% | – |
| Fc1ccc(CSc2nc(NCc3ccccc3)c3ccccc3n2)cc1 | inactive: -12.1% | – |
| COc1ccc(-c2cc(C(=O)Nc3cccc(O)c3)on2)cc1OC | inactive: 4.6% | – |
| COc1ccc(CNC(=O)Cn2c(=O)cc(C)c3c(C)nn(-c4cccc(Cl)c4C)c32)cc1 | inactive: 6.53% | – |
| Cc1ccc(C(=O)Nc2ccc(S(=O)(=O)Nc3onc(C)c3C)cc2)cc1 | inactive: 0.541% | – |
| CCOC(=O)c1ccc(NC(=O)Cn2c(=O)cc(C(F)(F)F)c3c(C)nn(C)c32)cc1 | inactive: 0.271% | – |
| COc1ccccc1CCNC(=O)Cc1c(C)c2cc3c(C)coc3cc2oc1=O | inactive: 16% | – |
| O=C(c1cc2ccccc2oc1=O)N1CCN(c2ccc(F)cc2)CC1 | inactive: -2.92% | – |
| Cc1cc(C)c2c(CC(=O)Nc3ccc(S(=O)(=O)N4CCCCC4)cc3)coc2c1 | inactive: -3.31% | – |
| Cc1cccc(CSCc2ccc(C(=O)NCCc3ccccc3)o2)c1 | inactive: 7.16% | – |
| CCOC(=O)c1ccc(Nc2c(-c3cccc(O)c3)nc3nc[nH]n23)cc1 | inactive: -22.3% | – |
| CCN(CC)CCN(C(=O)c1ccco1)c1nc2cc(C)cc(C)c2s1 | inactive: 2.36% | – |
| CCOc1cc(-c2ccc(OC(=O)c3ccc(C)cc3)c(OC)c2)cc(=O)c2c(C)oc(C)c12 | inactive: -9.03% | – |
| CC(=O)c1ccc(NC(=O)CN(C)S(=O)(=O)c2cc3c(cc2Cl)NC(=O)CO3)cc1 | inactive: -9.93% | – |
| CCOc1ccc(OCC)c(NC(=O)C(NS(=O)(=O)c2cccs2)c2ccccc2)c1 (stereo unspecified) | inactive: 3.18% | – |
| COc1ccc(C(=O)Nc2cc(S(=O)(=O)c3ccc(Cl)cc3)c(O)c(C)c2C)cc1 | inactive: -4.52% | – |

| Compound | activity change, negative = cytotoxicity | Potency |
| --- | --- | --- |
| COc1ccccc1NC(=O)Cn1nc(-c2ccc(C)cc2)c2c(c1=O)CCCC2 | inactive: 1.03% | – |
| Cc1cccc(C)c1NC(=O)Cn1c(=O)n(Cc2ccc3c(c2)OCO3)c(=O)c2oc3ccccc3c21 | inactive: -1.64% | – |
| CCOc1cc(C(=O)Nc2ccc(-c3nc4ccccc4s3)cc2Cl)cc(OCC)c1OCC | inactive: 3.35% | – |
| CCc1ccc(-n2nc3cc(C)c(NC(=O)c4cc(OC)cc(OC)c4)cc3n2)cc1 | inactive: -3.17% | – |
| Cc1ccc(CNC(=O)c2c(C)oc3nc(C)nc(N4CCOCC4)c23)cc1 | inactive: 15.1% | – |
| CCOc1ccc(S(=O)(=O)n2nc(C)c(S(=O)(=O)N3CCCCC3)c2C)cc1 | inactive: -1.71% | – |
| O=C(Nc1ccc(Cl)cc1C(F)(F)F)c1cc(S(=O)(=O)N2CCOCC2)ccc1F | inactive: -25.1% | – |
| COc1cc(CN2CCc3nc(N4CCN(c5ccccn5)CC4)ncc3C2)cc(OC)c1OC | – | active: 11.2 µM |
| COC(=O)c1ccccc1NS(=O)(=O)c1ccc2c(c1)CCCN2C(C)=O | inactive: -0.366% | – |
| CC(=O)c1cc(-c2ccccc2)n(CCC(=O)NC(C)c2ccccc2)c1C (stereo unspecified) | inactive: -15.8% | – |
| COc1ccc(C(=O)Nc2cc3c(cc2N2CCCC2)n(C)c(=O)c(=O)n3C)cc1OC | inactive: -3.54% | – |
| CCCC(=O)n1nc(-c2cccnc2)nc1NCc1ccc(OC)cc1 | inactive: -3.26% | – |
| Cc1nn(CCCC(=O)NCc2ccccc2)c(=O)c2cc3sccc3n12 | inactive: 11.6% | – |
| COc1ccc(N2CCN(c3ncnc4c3cnn4C)CC2)cc1 | inactive: -19.2% | – |
| CCN(CC)S(=O)(=O)c1ccc2c(c1)N(CC(=O)Nc1ccccc1F)C(=O)C1CCCN21 (stereo unspecified) | inactive: 1.02% | – |
| CCCNC(=O)Cn1c(=O)n(CC2CCC(C(=O)NC)CC2)c(=O)c2sccc21 (stereo unspecified) | inactive: -4.74% | – |
| Cc1ccc(NC(=O)/C(C#N)=C/c2ccc(-c3ccc(Cl)c(C(=O)O)c3)o2)cc1C | inactive: 7.47% | – |
| COc1ccc(Cn2c(C(=O)O)c(CNCCc3ccco3)c3ccc(OC)cc32)cc1 | inactive: 0.7% | – |
| O=C1CS(=O)(=O)C2(C(=O)N(Cc3ccccc3Cl)c3ccccc32)N1c1ccc(F)cc1 (stereo unspecified) | inactive: 2.35% | – |
| CCOc1cccc(NC(=O)C2CC(=O)N(CC)C(=Nc3ccc(F)cc3)S2)c1 (stereo unspecified) | inactive: 24% | – |
| CCOc1ccc(CCNC(=O)c2cc3cccc4c3n2CCS4)cc1 | inactive: -3.89% | – |

| Compound | activity change, negative = cytotoxicity | Potency |
| --- | --- | --- |
| COc1cccc(NC(=O)C2CCCN(S(=O)(=O)c3cn(C(C)C)cn3)C2)c1 (stereo unspecified) | inactive: -4.77% | – |
| COCCCNC(=O)c1cc2cc(S(=O)(=O)N3CCCCC3)ccc2n1C | inactive: -6.55% | – |
| Cc1cc(C)c(NC(=O)CSc2ncc3c(n2)-c2cc(Cl)ccc2N(C)S3(=O)=O)c(C)c1 | inactive: 0.924% | – |
| Cc1cccc(C(=O)Nc2ccc(S(=O)(=O)N3CCC(c4nc5ccccc5s4)CC3)cc2)c1 | inactive: 5% | – |
| CN(C(=O)CSc1nnc(NC(=O)Nc2ccccc2)s1)c1ccccc1 | inactive: -10% | – |
| COc1cc2ccccc2cc1C(=O)Nc1cccc(-c2nc3cc(C)c(C)cc3o2)c1 | inactive: 18% | – |
| O=C(NCC(c1cccnc1)N1CCc2ccccc21)c1cccc(Br)c1 (stereo unspecified) | inactive: -28% | – |
| CC(C)NC(=O)C1CCC(Cn2c(=O)c3sccc3n(Cc3ccc(F)cc3)c2=O)CC1 (stereo unspecified) | inactive: -0.165% | – |
| COc1ccc(-n2ncc(C(=O)NCc3ccco3)c2C2CCN(C(=O)OC(C)(C)C)CC2)cc1 | inactive: 2.18% | – |
| Brc1cccc(-c2nnn3c2nc(NCc2ccc4c(c2)OCO4)c2ccccc23)c1 | inactive: 8.11% | – |
| Cc1ccc(NC(=O)CSc2nnc3ccc4ccccc4n23)cc1 | inactive: 2.87% | – |
| CCc1ccc(NC(=O)c2ccc(-c3ccccc3)s2)cc1 | inactive: -5.21% | – |
| O=C(NCCN1CCN(c2cccc(Cl)c2)CC1)Nc1ccccc1 | inactive: -16.9% | – |
| O=C(CC1N=C2c3ccccc3N=C(SCc3ccc(F)cc3)N2C1=O)NCc1ccc2c(c1)OCO2 (stereo unspecified) | inactive: -12.5% | – |
| Cc1cccc(NC(=O)c2ccc(-c3ccccc3)s2)c1 | inactive: 2.75% | – |
| CCc1cnc2c(c1SCC(=O)NCc1ccccc1Cl)c(=O)n(C)c(=O)n2C | inactive: -2.55% | – |
| CCC(Oc1ccccc1)C(=O)Nc1nnc(S(=O)(=O)N(CC)CC)s1 (stereo unspecified) | inactive: -15% | – |
| CCOC(=O)C1CCN(c2ncnc3c2nc2n3CCCCC2)CC1 | inactive: 23.9% | – |
| Cc1cccc(C(=O)NCC(c2ccco2)S(=O)(=O)c2cccs2)c1 (stereo unspecified) | inactive: -14.2% | – |
